Experimental data published in a collection of fitness landscapes (doi:10.1126/science.1257360).
This is one part of the list.

B1: PhoQ; a variant is named by its letters at X, in order, P23837 (parent)
chain: MKKLLRLFFPLSLRVRFLLATAAVVLVLSLAYGMVALIGYSVSFDKTTFRLLRGESNLFYTLAKWENNKLHVELPENIDKQSPTMTLIYDENGQLLWAQRDVPWLMKMIQPDWLKSNGFHEIEADVNDTSLLLSGDHSIQQQLQEVREDDDDAEMTHSVAVNVYPATSRMPKLTIVVVDTIPVELKSSYMVWSWFIYVLSANLLLVIPLLWVAAWWSLRPIEALAKEVRELEEHNRELLNPATTRELTSLVRNLNRLLKSERERYDKYRTTLTDLTHSLKTPLXXLQXXLRSLRSEKMSVSDAEPVMLEQISRISQQIGYYLHRASMRGGTLLSRELHPVAPLLDNLTSALNKVYQRKGVNISLDISPEISFVGEQNDFVEVMGNVLDNACKYCLEFVEISARQTDEHLYIVVEDDGPGIPLSKREVIFDRGQRVDTLRPGQGVGLAVAREITEQYEGKIVAGESMLGGARMEVIFGRQHSAPKDE

Variants of: B1
Assay: enrichment ratio after two sorts for PhoP signalling (ratio (wild type AVST 3.29)); higher = more functional
Details: with PhoP (E. coli)

YPHT and WEHT cannot be ordered by enrichment ratio: at most 0.25 for the first, at most 0.25 for the second.

PKGH and TGKV cannot be ordered by enrichment ratio: at most 0.25 for the first, at most 0.25 for the second.

QCHT and FQVE cannot be ordered by enrichment ratio: at most 0.25 for the first, at most 0.25 for the second.

IAQS and AQRC cannot be ordered by enrichment ratio: at most 0.25 for the first, at most 0.25 for the second.

GIHM and SCQE cannot be ordered by enrichment ratio: at most 0.25 for the first, at most 0.25 for the second.

DGTS and DCCI cannot be ordered by enrichment ratio: at most 0.25 for the first, at most 0.25 for the second.

DNNY and PGFF cannot be ordered by enrichment ratio: at most 0.25 for the first, at most 0.25 for the second.

MRCV and EQNA cannot be ordered by enrichment ratio: at most 0.25 for the first, at most 0.25 for the second.

IGFN and RYCF cannot be ordered by enrichment ratio: at most 0.25 for the first, at most 0.25 for the second.

HRVI and FCKT cannot be ordered by enrichment ratio: at most 0.25 for the first, at most 0.25 for the second.

FCPF and WFCD cannot be ordered by enrichment ratio: at most 0.25 for the first, at most 0.25 for the second.

First: VVIQ
Second: GVVF
The enrichment ratio of the first is lower: at most 0.25 for the first, 0.871 for the second.

GHVP and WQGQ cannot be ordered by enrichment ratio: at most 0.25 for the first, at most 0.25 for the second.

VLQM and LTSA cannot be ordered by enrichment ratio: at most 0.25 for the first, at most 0.25 for the second.

EHVW and IQCI cannot be ordered by enrichment ratio: at most 0.25 for the first, at most 0.25 for the second.

QNGQ and THEG cannot be ordered by enrichment ratio: at most 0.25 for the first, at most 0.25 for the second.

FQAN and KMNN cannot be ordered by enrichment ratio: at most 0.25 for the first, at most 0.25 for the second.

PHTS and NIIY cannot be ordered by enrichment ratio: at most 0.25 for the first, at most 0.25 for the second.

VIWC and PSTD cannot be ordered by enrichment ratio: at most 0.25 for the first, at most 0.25 for the second.

First: MSCN
Second: YHYG
The enrichment ratio of the first is higher: 1.97 for the first, at most 0.25 for the second.

VRFE and AMKM cannot be ordered by enrichment ratio: at most 0.25 for the first, at most 0.25 for the second.

HIHN and VQVH cannot be ordered by enrichment ratio: at most 0.25 for the first, at most 0.25 for the second.

VNCE and TQDH cannot be ordered by enrichment ratio: at most 0.25 for the first, at most 0.25 for the second.

Compared with QFKH, YEAW is lower in enrichment ratio: 2.9 for the first, at most 0.25 for the second.

ILKM and IYFW cannot be ordered by enrichment ratio: at most 0.25 for the first, at most 0.25 for the second.

WKEQ and AQPP cannot be ordered by enrichment ratio: at most 0.25 for the first, at most 0.25 for the second.

FGYS and VHRN cannot be ordered by enrichment ratio: at most 0.25 for the first, at most 0.25 for the second.

YWDM and NKHD cannot be ordered by enrichment ratio: at most 0.25 for the first, at most 0.25 for the second.

PAFF and IAGP cannot be ordered by enrichment ratio: at most 0.25 for the first, at most 0.25 for the second.

VKQP and NHLR cannot be ordered by enrichment ratio: at most 0.25 for the first, at most 0.25 for the second.

YLGP and DRVC cannot be ordered by enrichment ratio: at most 0.25 for the first, at most 0.25 for the second.

PTHF and VPNM cannot be ordered by enrichment ratio: at most 0.25 for the first, at most 0.25 for the second.

YYDH and IDRF cannot be ordered by enrichment ratio: at most 0.25 for the first, at most 0.25 for the second.

PPTN and IVIW cannot be ordered by enrichment ratio: at most 0.25 for the first, at most 0.25 for the second.

PVET and MVGC cannot be ordered by enrichment ratio: at most 0.25 for the first, at most 0.25 for the second.

DNWW and HDRR cannot be ordered by enrichment ratio: at most 0.25 for the first, at most 0.25 for the second.

DAHV and DIVR cannot be ordered by enrichment ratio: at most 0.25 for the first, at most 0.25 for the second.

QCWH and KISS cannot be ordered by enrichment ratio: at most 0.25 for the first, at most 0.25 for the second.

LCSV and KQRW cannot be ordered by enrichment ratio: at most 0.25 for the first, at most 0.25 for the second.

Compared with GKVL, PQLS is lower in enrichment ratio: 1.26 for the first, at most 0.25 for the second.

NDDG and KFED cannot be ordered by enrichment ratio: at most 0.25 for the first, at most 0.25 for the second.

SVPD and FERG cannot be ordered by enrichment ratio: at most 0.25 for the first, at most 0.25 for the second.

RCYP and VANF cannot be ordered by enrichment ratio: at most 0.25 for the first, at most 0.25 for the second.

KNNR and YLTV cannot be ordered by enrichment ratio: at most 0.25 for the first, at most 0.25 for the second.

Going from TIQF to TIQL, the enrichment ratio rises from 9.01 to 10.3.

QMSR and VDYH cannot be ordered by enrichment ratio: at most 0.25 for the first, at most 0.25 for the second.

QPIL and DQPR cannot be ordered by enrichment ratio: at most 0.25 for the first, at most 0.25 for the second.

DYFC and QVEL cannot be ordered by enrichment ratio: at most 0.25 for the first, at most 0.25 for the second.

Going from HGCI to TNGF, the enrichment ratio falls from 17.9 to 15.9.

RMVN and SYWR cannot be ordered by enrichment ratio: at most 0.25 for the first, at most 0.25 for the second.

DYVF and IYWQ cannot be ordered by enrichment ratio: at most 0.25 for the first, at most 0.25 for the second.

LVVG and PEEG cannot be ordered by enrichment ratio: at most 0.25 for the first, at most 0.25 for the second.

VKVA and WHSL cannot be ordered by enrichment ratio: at most 0.25 for the first, at most 0.25 for the second.

YWHH and YKLK cannot be ordered by enrichment ratio: at most 0.25 for the first, at most 0.25 for the second.

TDYD and FTYQ cannot be ordered by enrichment ratio: at most 0.25 for the first, at most 0.25 for the second.

Compared with HEQA, AIAW is higher in enrichment ratio: at most 0.25 for the first, 2.98 for the second.

QIKI and QAMH cannot be ordered by enrichment ratio: at most 0.25 for the first, at most 0.25 for the second.

KRAP and KRTH cannot be ordered by enrichment ratio: at most 0.25 for the first, at most 0.25 for the second.

Going from SWWY to FAMI, the enrichment ratio rises from at most 0.25 to 2.3.

First: TEVA
Second: AFNQ
The enrichment ratio of the first is higher: 6.58 for the first, at most 0.25 for the second.

AHGV and WRAW cannot be ordered by enrichment ratio: at most 0.25 for the first, at most 0.25 for the second.

MPPA and KKIS cannot be ordered by enrichment ratio: at most 0.25 for the first, at most 0.25 for the second.

First: MRLS
Second: GSLM
The enrichment ratio of the first is lower: at most 0.25 for the first, 20.9 for the second.

First: NCPR
Second: ASCC
The enrichment ratio of the first is lower: at most 0.25 for the first, 18.2 for the second.

DDAT and SPEG cannot be ordered by enrichment ratio: at most 0.25 for the first, at most 0.25 for the second.

Compared with ASVY, ICWQ is lower in enrichment ratio: 2.98 for the first, at most 0.25 for the second.

GEQR and NHKF cannot be ordered by enrichment ratio: at most 0.25 for the first, at most 0.25 for the second.

QNTI and ECCN cannot be ordered by enrichment ratio: at most 0.25 for the first, at most 0.25 for the second.

QMFQ and NPPY cannot be ordered by enrichment ratio: at most 0.25 for the first, at most 0.25 for the second.

TWSS and PWIC cannot be ordered by enrichment ratio: at most 0.25 for the first, at most 0.25 for the second.

PTIV and MYSE cannot be ordered by enrichment ratio: at most 0.25 for the first, at most 0.25 for the second.

EISA and TFCP cannot be ordered by enrichment ratio: at most 0.25 for the first, at most 0.25 for the second.

ISKE and YCQF cannot be ordered by enrichment ratio: at most 0.25 for the first, at most 0.25 for the second.

WQAV and PEPF cannot be ordered by enrichment ratio: at most 0.25 for the first, at most 0.25 for the second.

SAKY and GWQA cannot be ordered by enrichment ratio: at most 0.25 for the first, at most 0.25 for the second.

YCPW and TLCI cannot be ordered by enrichment ratio: at most 0.25 for the first, at most 0.25 for the second.

NRIH and DGFY cannot be ordered by enrichment ratio: at most 0.25 for the first, at most 0.25 for the second.

IVNP and MEPW cannot be ordered by enrichment ratio: at most 0.25 for the first, at most 0.25 for the second.

MTPW and NDQW cannot be ordered by enrichment ratio: at most 0.25 for the first, at most 0.25 for the second.

ICAI and PPYC cannot be ordered by enrichment ratio: at most 0.25 for the first, at most 0.25 for the second.

YGNP and PKDP cannot be ordered by enrichment ratio: at most 0.25 for the first, at most 0.25 for the second.

LGDD and GKNF cannot be ordered by enrichment ratio: at most 0.25 for the first, at most 0.25 for the second.

AWSI and IGMA cannot be ordered by enrichment ratio: at most 0.25 for the first, at most 0.25 for the second.

WTLV and KYVV cannot be ordered by enrichment ratio: at most 0.25 for the first, at most 0.25 for the second.

DCLS and WVLD cannot be ordered by enrichment ratio: at most 0.25 for the first, at most 0.25 for the second.

FHHA and PDNP cannot be ordered by enrichment ratio: at most 0.25 for the first, at most 0.25 for the second.

VNIK and HYIL cannot be ordered by enrichment ratio: at most 0.25 for the first, at most 0.25 for the second.

VMGH and IRWV cannot be ordered by enrichment ratio: at most 0.25 for the first, at most 0.25 for the second.

Going from NSNI to QSDF, the enrichment ratio rises from at most 0.25 to 2.95.

WGAI and QVVL cannot be ordered by enrichment ratio: at most 0.25 for the first, at most 0.25 for the second.

Going from LKFK to SQDA, the enrichment ratio falls from 0.274 to at most 0.25.

MCYY and TEPC cannot be ordered by enrichment ratio: at most 0.25 for the first, at most 0.25 for the second.

Going from EQMH to SDVG, the enrichment ratio rises from at most 0.25 to 1.53.

RYFT and YLAM cannot be ordered by enrichment ratio: at most 0.25 for the first, at most 0.25 for the second.

Compared with LHYT, RHWV is lower in enrichment ratio: 0.383 for the first, at most 0.25 for the second.

KSDH and NNYS cannot be ordered by enrichment ratio: at most 0.25 for the first, at most 0.25 for the second.

DKFI and IWSM cannot be ordered by enrichment ratio: at most 0.25 for the first, at most 0.25 for the second.

For VLSI, the enrichment ratio was at most 0.25.
